# Assay results: the supplement of paper PMC11417369
# This is one part of the list.
# Test system: PfHDP1 homeodomain (GST-tagged)
# Test: gcPBM binding intensity (ln(normalized median fluorescence intensity)); higher = stronger DNA binding
# Method in brief: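 Binding of GST-tagged P. falciparum DNA-binding domains, expressed in E. coli and used at about 25 μg on average, was carried out for 1 h in 1× PBS containing 1% milk, 0.2 mg/ml BSA, 0.5% salmon testes DNA and 0.03% Triton X-100. The target was an Agilent 4 × 180k array of primer-extended double-stranded 36-bp intergenic genomic probes plus negative controls, read with Alexa488 anti-GST antibody at 488 nm. Binding intensity is the highest Masliner-normalised natural-log median intensity across replicate spots of either probe orientation.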
row,Sequence,gcPBM binding intensity (ln)
1,AATGATCATATATACACACACACAAAAAAAAAAAAA [CACACA_site4009],6.52
2,ATAATTTGTAAAAGGAGTACAAAACCATACTTTTTT [XGTACX_site6076],5.93
3,AAAGGAAAATTAAAAAGTACACATTTGAAAAAAAAA [XGTACX_site2724],6.37
4,ATGTATTTAATAAGAACACACATATATTTAATTTAA [CACACA_site5606],6.11
5,TTTTTTTTTTTAAGTTCACACATAAATTCGATTTAC [CACACA_site5057],6.35
6,ACCGTTTTTGTGTAATGTACAAAATTTCTGACAGTG [XGTACX_site4999],6.79
7,TATAAGTTTATATATACACACATATATATATATATA [CACACA_site3274],9.3
8,TTGTTAAAATTATTAAGTTAAATATCGATTTGTAAA [XGTACX_negctrl_site429],6.02
9,ATATTTATAACTTGTACACACAAATATGCATATATA [CACACA_site7583],7.12
10,TTAAAATTTTTTTTTTTTTTTTTTTTTTTTTTTTTC [CACACA_negctrl_site957],5.85
11,TTATTATTCCCTCATTTTGTTACCATTATTTCAATT [CACACA_negctrl_site1023],6.85
12,ATATATCATAATAAAAGTACTTATATATTTTATATA [XGTACX_site560],6.19
13,AAAATAAATAAATATACACACCATATATATATTTTT [CACACA_site5573],6.44
14,AAAAAAAAAAAAAACACACACACAAATACAAATACA [CACACA_site414],6.62
15,ATAAATAATTGTAGTTGTACATGATATTTTTATTAC [XGTACX_site550],6.27
16,TACAAAAAAAGATGATGTACAATGAAAAATAAGAAA [XGTACX_site5840],7.13
17,AAATGGACCTAATTATCACACATTATACTCGTTTTC [CACACA_site5996],6.36
18,AGTGAAAAAAAATTTACACACATAAAATATAAACGA [CACACA_site3724],6.64
19,TTTTTAGTTCATTAAACACACAAAAAAAAAAATAAA [CACACA_site6035],6.23
20,TTTTTTATTCTTTTTGCACACAGGAAATTTACAGAT [CACACA_site1090],10.6
21,TAATACTTTTAATCTACACACGCTGAGACATGCTTT [CACACA_site1484],6.14
22,AAAAAAAATATAAGTGGTACTCACATAAAGACATAT [XGTACX_site3709],6.75

row,Sequence,gcPBM binding intensity (ln)
1,AAATAAAATACATATAAACACACATATAAACCAACA [CACACA_site8789],7.1
2,TTATATAATCCTTTCAAACACACAAAATATAATTAA [CACACA_site1830],6.48
3,AAAATAAAAAGAAAAAATAAAAAGAAAAAATAAAAA [CACACA_negctrl_site120],5.96
4,TACAATTTATGACACACACACAATAATACCTATATA [CACACA_site6704],6.85
5,TATATATATATATGTGCACACATAAAGATATTATTT [CACACA_site3734],10.6
6,AAAAAAAAAAAACACACACACACACTAGTACATACA [CACACA_site4551],6.93
7,AATAAAATAATAGGCACACATATATATATATATTAT [CACACA_site273],6.71
8,ATATCCTACTTCTAGTGTACATATATGGACTGATGA [XGTACX_site3683],7.04
9,ATATATCTACATATATGTACATATATGTATATGTAT [XGTACX_site5432],6.55
10,GGGAATATATAAGATACACACACAAATTAAATATAA [CACACA_site8898],6.88
11,TGCCCTTTGGTTATAACACACATGCACACGTAAATA [CACACA_site7750],8.79
12,AATTAACCGTGACACACACACATATAAATATAAATA [CACACA_site7790],6.78
13,TATATATATATATATACACACACACCCACCAAAGCG [CACACA_site7904],9.48
14,TTTTTAATACAAAAAAAATAATATGTTATATTTCAA [CACACA_negctrl_site35],5.96
15,ATGAAATATGCACAGTGTACTTTTATGAGGAACATA [XGTACX_site426],9.9
16,AATCCTTTAAAACACACACACAAAAAAAAAAAAAAA [CACACA_site642],6.32
17,AAAATGTACTTTTTCTAAAGAGTAATGATGCTTGAT [CACACA_negctrl_site1124],6.36
18,TTTAACGTTGAATATACACACATATATTTATTTATA [CACACA_site7695],6.76
19,AATAAAAAAATAAAAAAAAAAAAAAATAAAAAAAAA [GTGCAC_negctrl_site12],5.94
20,CGTATTTTAATATTTACACACTTATTTTTTATATAA [CACACA_site125],6.66
21,TTTTGTAAAAGGTATATATATATATATATATATATA [GTGCAC_negctrl_site734],9.61
22,TTTATATAGAAAAATTGTACGAATTACTTTTTTATA [XGTACX_site6843],5.93

row,Sequence,gcPBM binding intensity (ln)
1,TATAGCATATTTCACACACACATAATGAATATTATA [CACACA_site3545],6.46
2,TGCTTCATAAATAAAACATGCAATATAGAAATTAAA [TGCATGCA_site690],6.44
3,TATAGTAAAATTAGGGTGCTTTTGTAACAAAAAAAA,6.71
4,TTATTTTCTTTCTATGCACACGCACGTATTTGCCCA [CACACA_site9104],9.79
5,AAATATATATACCACACACACATACCTCTATTTGTA [CACACA_site1854],6.84
6,AGAGTAGGAAATGGAAAAATAAAATAAATAAATAAA [XGTACX_negctrl_site69],6.4
7,AATAATATAAATATTACACACTAATTGTATTATAGA [CACACA_site6347],6.34
8,TATTAAATATTGTATACATGCAAATACTAGAAAATT [TGCATGCA_site370],7.09
9,AGGAAACAAGAAATGAAGAATCATGTAGAAGGCCCA [GTGCAC_negctrl_site187],6.04
10,TATATAACCGAGTGCACACACAAAAAAAAAGTGAAC [CACACA_site6806],10.8
11,ATATATATGAAACACACACACAAAAAAAAAAAAAAA [CACACA_site3647],6.43
12,ATAACACAAAATTGTTGTACACGTGTTAATAAGTGA [XGTACX_site4452],7.11
13,AATATTTATATAAATGCATGCTGATACAACAGTCTT [TGCATGCA_site21],6.72
14,TAAAGTTATGCAATAACACACATATACAATACATAT [CACACA_site6698],7.96
15,CACAGTGATATAAAAACACACATGAATTCTAATTTC [CACACA_site6884],6.19
16,AGGTATGTCTATAAATGTACATATGAGTTCAATTTC [XGTACX_site2244],6.58
17,AAATATATATAAACAAGTACATATTTAAAAAAAGGA [XGTACX_site2631],6.51
18,CATAAAAATATTAATAAACACACAATCAGATATTGA [CACACA_site9032],6.37
19,TTCGTAACTGATTCAACACACAAAAGGGGGAAAATT [CACACA_site1754],7.03
20,AAAAAGAAGAATAATACACACAAATTACTTTATATA [CACACA_site6984],6.33
21,TAAATTAAAAAAAATACACACACACCGACACATATA [CACACA_site9084],7.03
22,TATGTTATATAATATTGTACACAAAATGGTTTCTAT [XGTACX_site7686],6.73

row,Sequence,gcPBM binding intensity (ln)
1,AATTACAAATATTCATGTACATATTTATAAATACAT [XGTACX_site5430],6.43
2,ATATATATATATATGTGTACATATATTAAGATATAT [XGTACX_site1065],9.44
3,ATATTATAGAAATATACACACATTGTTTTATAGCAT [CACACA_site7177],6.54
4,ATATTACGCACAAAAAAAAAAAAAAAAAAAAAAAAA [CACACA_negctrl_site941],8.67
5,ATGATGTGCTTTAAAAGTACTTAAGTTATATTCTTT [XGTACX_site7127],6.4
6,AAAATTAAAATTTTCACACAGATATATTTACAATTT [CACACA_site5692],6.1
7,TTTATATGTATACAAACATATAAATATAAATGTATT [TGCATGCA_negctrl_site346],6.2
8,TATATATACATATACACACACACACCGATATATATA [CACACA_site8706],7.05
9,TGTTCTATGATTTGTACACACTTTTTTTTAAAATGC [CACACA_site5558],6.84
10,GTTTTGTACATATTCTCACACATATAAAAATACCCA [CACACA_site4446],7.02
11,AAGCATTTAATGTTTTATATAACATGTATTTTTTAT [CACACA_negctrl_site673],6.56
12,TTCATAATAAAAAGGTGTACATATATATATATATAT [XGTACX_site2829],9.47
13,AAAAAAATTTCACATTGTACTTTAATAATATACTAC [XGTACX_site7264],6.12
14,ATAAATATATATTTACGTACATATTATATATATATA [XGTACX_site6172],8.57
15,ACATATAAATTGTGTACACATATATATATATTTTTT [CACACA_site5946],6.94
16,GAATGCATGTAAATATGTACATATATTTAAAAATTT [XGTACX_site6032],6.73
17,CTTACTTACTTACTCACACACATATACAAAGAAAAA [CACACA_site3347],6.94
18,AAATATATGTTATATGTGCACTTTTTTTTTTTTTTT [GTGCAC_site9667],8.92
19,TTTTACTAAATATATACACACATTATACATATATAT [CACACA_site9081],6.78
20,ATAAATAATAAAAAATGTACACATATAAATATAAAG [XGTACX_site727],6.83
21,ATGATGAAAATAGAAATACACACTAAAAAATAAAAT [CACACA_site1136],6.69
22,AAAACATGTTCAACATGTACACAACAGGATGAATAT [XGTACX_site506],6.94
